Test results: article PMC4336329 (PLoS ONE, 2015)
In all, about 310,000 compounds went through this assay and about 14,000 (4.5%) showed an effect of 50% or more. Effects have a minus sign here. The list shows a part of the results.

Target: human ether-à-go-go-related gene (hERG) potassium channel (human, UniProt Q12809)
Assay: primary screen, population patch clamp on CHO cells stably expressing hERG
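Further: peak tail current of the secondary pulse compared with the same well before compound.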

human ether-à-go-go-related gene (hERG) potassium channel, sequence (Q12809 whole entry, looked up): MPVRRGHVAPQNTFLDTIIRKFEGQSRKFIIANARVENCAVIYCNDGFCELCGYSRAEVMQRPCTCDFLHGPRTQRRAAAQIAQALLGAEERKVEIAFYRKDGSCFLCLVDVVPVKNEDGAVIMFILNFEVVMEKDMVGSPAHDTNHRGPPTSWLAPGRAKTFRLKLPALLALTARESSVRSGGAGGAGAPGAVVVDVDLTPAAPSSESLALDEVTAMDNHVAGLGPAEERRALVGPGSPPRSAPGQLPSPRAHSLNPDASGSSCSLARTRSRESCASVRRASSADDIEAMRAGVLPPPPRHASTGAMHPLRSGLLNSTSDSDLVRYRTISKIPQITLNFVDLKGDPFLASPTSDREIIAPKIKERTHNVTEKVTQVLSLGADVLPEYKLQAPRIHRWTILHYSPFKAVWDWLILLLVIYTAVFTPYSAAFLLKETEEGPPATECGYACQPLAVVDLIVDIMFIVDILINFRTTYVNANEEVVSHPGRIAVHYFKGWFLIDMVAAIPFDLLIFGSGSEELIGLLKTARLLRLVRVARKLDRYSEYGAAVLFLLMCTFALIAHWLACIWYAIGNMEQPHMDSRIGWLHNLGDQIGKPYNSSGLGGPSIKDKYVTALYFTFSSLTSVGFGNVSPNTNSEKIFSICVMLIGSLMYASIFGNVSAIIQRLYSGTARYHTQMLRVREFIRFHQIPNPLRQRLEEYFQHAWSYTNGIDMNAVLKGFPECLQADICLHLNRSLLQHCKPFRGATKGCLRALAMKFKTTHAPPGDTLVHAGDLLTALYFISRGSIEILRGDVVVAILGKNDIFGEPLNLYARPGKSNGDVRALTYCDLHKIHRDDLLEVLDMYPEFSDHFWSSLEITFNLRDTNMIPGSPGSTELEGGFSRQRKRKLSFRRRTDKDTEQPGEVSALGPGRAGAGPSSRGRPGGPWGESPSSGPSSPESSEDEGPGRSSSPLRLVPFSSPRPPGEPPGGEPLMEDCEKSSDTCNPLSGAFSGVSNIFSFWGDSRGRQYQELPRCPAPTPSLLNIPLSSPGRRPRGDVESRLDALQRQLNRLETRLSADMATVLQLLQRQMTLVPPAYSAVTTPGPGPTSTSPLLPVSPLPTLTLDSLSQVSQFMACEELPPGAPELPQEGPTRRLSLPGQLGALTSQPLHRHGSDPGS

SMILES | hERG current change (%, negative = inhibition) at 10uM
COc1cccc(C(=O)NCC(=O)N/N=C(\C)Cc2ccccc2)c1 | 12.3%
Cc1ccccc1NC(=O)C1CCN(C(=O)NC2CCCCC2)CC1 | 13.1%
COc1cccc(CN(C(=O)Cn2nnc(-c3ccccc3F)n2)C(C(=O)NC(C)(C)C)c2ccncc2)c1 (stereo not drawn) | -18.7%
Cc1ccc(S(=O)(=O)N2CCOCC2)cc1C(=O)NCc1ccccc1CN1CCCC1 | -53%
CCCNC(=O)c1onc(CSc2ccc(F)cc2)c1C(=O)NC(C)C | -5.38%
CCOC(=O)c1c[nH]n(-c2ccc(C)cc2)c1=O | 19.1%
COc1ccc(-c2nnc(SCc3ccccc3F)o2)cc1OC | 9.89%
Cc1ccc(C)c(/C=N/Nc2ccccn2)c1 | 24.6%
CCOC(=O)c1oc2ccccc2c1NC(=O)C1CCCCC1 | -8.66%
Cc1cnc(C)c(N(C)NC(=S)Nc2ccccc2)n1 | -13.7%
Cc1ccc2[nH]c(C)c(CCN(Cc3cccnc3)C(=S)NC(C)(C)C)c2c1 | 2.7%
CN1CCN(c2nc3ccccn3c(=O)c2/C=C(\C#N)S(=O)(=O)c2ccc(Cl)cc2)CC1 | -51.9%
COc1cccc(CN(C)C(=O)c2cccc(OCc3ccccc3)c2)c1 | 13.1%
CCOc1cccc(CN2CCCC(N3CCc4cc(OC)c(OC)cc4C3)C2)c1O (stereo not drawn) | -39.3%
Cc1ccc(S(=O)(=O)NCC(c2ccccc2)N2CCN(CCC#N)CC2)cc1 (stereo not drawn) | -21.5%
O=C(COc1ccc2c3c(c(=O)oc2c1)CCCC3)NCc1ccncc1 | 3.34%
COc1ccc2nc(Nc3nc(CSc4ccc(C)cc4)cc(=O)[nH]3)nc(C)c2c1 | -13.1%
COc1cccc(NC(=O)C2CCCN2S(=O)(=O)c2ccc3c(c2)C(C)(C)C(=O)N3C)c1 (stereo not drawn) | -10.7%
Clc1cccc(C2NCc3ccccc3-n3cccc32)c1 (stereo not drawn) | 15.2%
CCCC(=O)Nc1cc(S(=O)(=O)N2CCCCC2)ccc1N1CCOCC1 | -5.59%
Oc1cnn(-c2ccccc2)c1 | -0.563%
CCOc1ccc(S(=O)(=O)N2CCCC(C(=O)N3CCOCC3)C2)cc1Cl (stereo not drawn) | 4.02%

SMILES | hERG current change (%, negative = inhibition) at 10uM
Cc1ccc(C(C(=O)NCc2ccc(F)cc2)N(CCCO)C(=O)C2COc3ccccc3O2)o1 (stereo not drawn) | -38.7%
O=C1NC2(CCCCC2)Cc2ccccc21 | 5.62%
Cc1ccc(S(=O)(=O)/N=S(\C)C(C)C)cc1 (stereo not drawn) | 4.08%
O=S(=O)(Nc1ccc(O)c2ccccc12)c1ccc(OC(F)(F)F)cc1 | 0.524%
NC(=O)c1ccccc1NC(=O)CCCN1C(=O)CCC1=O | 7.71%
CC(Oc1ccc(Cl)cc1)c1ccc(C#N)c(=O)[nH]1 (stereo not drawn) | -1.11%
COc1ccc(NC2CC(=O)N(c3ccc(C(=O)O)cc3)C2=O)cc1 (stereo not drawn) | 5.73%
O=C(O)CNS(=O)(=O)c1cccc(Cl)c1 | 7.93%
COc1ccc(N2CCN(C3CC(=O)N(Cc4ccccc4)C3=O)CC2)cc1 (stereo not drawn) | 3.62%
COc1ccc(S(=O)(=O)NCCc2csc(-c3cccnc3)n2)cc1 | -30.5%
C[C@@]12C(=O)N(c3cccc(F)c3)C(=O)N1[C@H](c1ccc(Cl)cc1)[C@@H]1C(=O)N(C3CCCCC3)C(=O)[C@@H]12 | 4.31%
COc1cc(C(=O)NC(=S)Nc2ccccc2N2CCOCC2)cc(OC)c1OC | -8.15%
Cc1coc2cc3oc(=O)c(CC(=O)N[C@@H](CC(C)C)C(=O)O)c(C)c3cc12 | 9.3%
Cc1ccc(N=c2c([N+](=O)[O-])nn(-c3ccccc3)n2O)c(C)c1 | -9.28%
CCOc1ccc(/C=C/C(=O)N(CC)CC(=O)Nc2ccc3c(c2)OCCO3)cc1OC | -39.3%
O=C(Nc1ccccc1N1CCCCC1)c1cc(S(=O)(=O)N2CCOCC2)ccc1Cl | -4.01%
COc1cccc(-c2nn3c(-c4cc(C)[nH]n4)nnc3s2)c1 | -57.5%
C=CCNC(=O)CC(C)C(CCCCC)C(=O)O (stereo not drawn) | 9.32%
O=C(Cc1nn[nH]n1)Nc1ccc(F)cc1F | 1.18%
COc1ccc2c(c1)C=C(C(=O)OCc1cccnc1)CO2 | 3.63%
O=C(COc1ccccc1)NCc1ccc2c(c1)OCO2 | -3.64%
CCNc1nc(Sc2ccc(C)cc2)cc(C(F)(F)F)n1 | -1.85%

SMILES | hERG current change (%, negative = inhibition) at 10uM
COc1ccc2c(c1)C1CC(C)(NC(=O)C1S(=O)(=O)c1ccc(F)cc1)O2 (stereo not drawn) | -9.7%
O=S(=O)(c1ccccc1F)N1CCN(CCOc2ccccc2)CC1 | -16.3%
O=C(/C=C/c1ccco1)N1CCCC(c2ccccc2)C1 (stereo not drawn) | -14.7%
Cn1cnc(S(=O)(=O)N2CCN(c3ccc(Cl)cc3)CC2)c1 | -14.3%
Cl.Fc1ccc(-c2csc(Nc3ccccn3)n2)c(F)c1 | 20.3%
Cn1ncc2c(Sc3ccc(Cl)cc3)ncnc21 | 22.7%
COc1ccc(NS(=O)(=O)c2csc(C(=O)N3CCCC3)c2)cc1 | -6.41%
CC(Sc1nnc(-c2ccco2)n1C)C(=O)N1C(C)CCCC1C (stereo not drawn) | -1.93%
COC(=O)C1=C(C)OC(N)=C(C#N)C1c1cc(OC)c(OCC(N)=O)cc1Cl (stereo not drawn) | -10%
O=C(NCC1(N2CCOCC2)CCCCC1)c1ccc(S(=O)(=O)Nc2ccccc2F)cc1 | -13.5%
Clc1ccc(SCc2cc(-c3ccc(Cl)cc3)on2)cc1 | 11.9%
Cc1c(C(=O)OCC(=O)N2CCCC(C)C2)oc2ccccc12 (stereo not drawn) | -2.52%
CC1CCN(c2ccccc2NC(=S)NC(=O)C(C)(C)C)CC1 | 14.5%
Cc1ccc(NC(=O)COC(=O)c2ccccc2-c2nc3ccccc3s2)c(C)c1 | 35.3%
O=C(OCC(=O)N1CCc2ccccc21)[C@@H]1CCCN1S(=O)(=O)c1ccccc1F | -10.6%
CC(C)CCNC(=O)CN(Cc1ccccc1)C(=O)CCC(=O)Nc1nccs1 | -13.4%
COc1cc(OC)c(NC(=O)CN(C)S(=O)(=O)c2ccc3[nH]c(=O)oc3c2)cc1Cl | 3.44%
CC1CCCC(C)N1CCCNC(=O)C(=O)Nc1ccc2nc3n(c(=O)c2c1)CCCCC3 (stereo not drawn) | 16.8%
O=C(N/C(=C/c1cccc([N+](=O)[O-])c1)C(=O)N1CCOCC1)c1ccc(Br)cc1 | -46.6%
O=C(NC(C(=O)c1ccccc1)n1c(=O)cc[nH]c1=S)c1ccccc1 (stereo not drawn) | -6.96%
CCOC(=O)c1ccc(N2C(=O)c3n[nH]c(C)c3C2c2ccco2)cc1 (stereo not drawn) | -5.29%
CCC(C)N1C(=O)CCC1C(=O)N1CCN(c2ccccc2F)CC1 (stereo not drawn) | 15.2%

SMILES | hERG current change (%, negative = inhibition) at 10uM
O=c1[nH]nc(Cc2ccccn2)c2ccccc12 | -8.08%
COc1cc(CN=Cc2c(O)n(C(C)(C)C)c(=O)[nH]c2=O)cc(OC)c1 | 6.84%
CCC(=O)Nc1ccc(/C(C)=N/NC(=O)c2c(Br)c(C)nn2C)cc1 | 5.35%
CCN(Cc1nc(-c2ccccc2)no1)C(=O)c1ccoc1C | 23.8%
CC1CC(NC2=NCCS2)CC(C)(C)C1 (stereo not drawn) | -2.81%
CCCNC(=O)c1ccccc1NC(=O)c1ccccc1SC | 3.1%
COc1cc(S(=O)(=O)NCc2ccncc2)c(OC)cc1Br | -14.7%
CCc1cccc2c(C(=O)COC(=O)c3nn(C)c(=O)c4ccccc34)c[nH]c12 | -65.6%
CC(=O)c1ccc(NC(=O)CSC(C)C)cc1 | -9.24%
Cc1ccc(NC(=O)/C(C#N)=C(\N)C(Cl)(Cl)Cl)nc1 | 15.1%
COc1cccc(Cn2nnc(C(=O)NCc3ccccc3Cl)c2N)c1 | -3.06%
O=C(c1ccc2c3c(cccc13)CC2)C1CCCN(Cc2ncc[nH]2)C1 (stereo not drawn) | -55.7%
O=C(Cc1ccc(Cl)c(Cl)c1)N1CCOCC1 | 28%
COC(c1ccc(Cl)cc1)(c1ccc(Cl)cc1)C(Oc1nc(C)cc(C)n1)C(=O)O (stereo not drawn) | 12.7%
C#CCOCCOCCOCCNc1nc(N2CCN(C(=O)[C@H](CCCCN)n3cc([C@@H](N)C(C)CC)nn3)CC2)nc(N2CCN(C(=O)[C@H](Cc3ccc(O)cc3)n3cc([C@@H](N)CC(C)C)nn3)CC2)n1.Cl (stereo partly drawn) | -4.75%
O=C(Nc1ccc(Cl)cc1F)c1cccc2ccccc12 | 12.2%
CN(C1=NC(=O)CS1)c1ccc(O)cc1 | -3.05%
CC(=O)NCC(=O)N(C)C(C(=O)Nc1ccc2c(c1)OCCO2)c1ccc(C)cc1 (stereo not drawn) | 5.94%
CN(C)c1cccc2c1c(NC(=O)Nc1ccc(Cl)cc1Cl)nn2C | 4.01%
O=C(Cn1cnc2c(nnn2Cc2ccc(Cl)cc2)c1=O)NCc1ccco1 | -16.5%
CC1CCCCN1CCCn1c(=S)[nH]c2ccccc2c1=O (stereo not drawn) | -46.4%
